Measured values as given in the BET-seq Pho4 binding data (Le et al. 2018).
Some of the results follow. The energies were worked out here from pooled read counts, against the library average; single values are noisy.

molecular target: T1, Pho4 (S. cerevisiae) (UniProt P07270); test: relative binding free energy (BET-seq); higher = weaker binding; conditions: reference: library average
T1 sequence: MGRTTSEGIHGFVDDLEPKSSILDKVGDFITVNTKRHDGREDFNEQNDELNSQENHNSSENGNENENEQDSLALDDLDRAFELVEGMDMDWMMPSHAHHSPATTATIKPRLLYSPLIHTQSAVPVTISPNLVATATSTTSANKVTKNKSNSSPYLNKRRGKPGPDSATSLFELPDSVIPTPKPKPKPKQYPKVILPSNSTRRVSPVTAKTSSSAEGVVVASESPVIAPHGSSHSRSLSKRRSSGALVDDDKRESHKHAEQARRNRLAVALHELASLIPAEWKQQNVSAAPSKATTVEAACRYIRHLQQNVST

| Sequence | relative binding free energy [kcal/mol] |
| --- | --- |
| TTAGGCACGTGTTTCT | -0.19 |
| GTGGGCACGTGCGAGC | -0.05 |
| GTATCCACGTGGTGGG | -0.08 |
| ATTGTCACGTGACGCT | 0.37 |
| CGTGACACGTGATGGG | 0.01 |
| TTAGTCACGTGACGAG | 0.32 |
| TTGGTCACGTGCTCGT | 0.13 |
| GTTTTCACGTGTCTAG | 0.48 |
| GTGGGCACGTGTTAGT | -0.03 |
| GTGGACACGTGATGTA | 0.26 |
| CTTGGCACGTGTTTGC | -0.1 |
| ATTGTCACGTGAGCAG | 0.22 |
| CTTCGCACGTGAGGTT | 0.17 |
| TTGTGCACGTGGCGCA | -0.16 |
| TTTAGCACGTGGGAGA | 0.02 |
| TATTACACGTGTCGTG | 0.02 |
| ATTGGCACGTGATTAT | -0.04 |
| TAGTTCACGTGGTGAA | 0.12 |
| GAGTGCACGTGTAACG | 0.22 |
| GGTTCCACGTGGTGTA | 0.07 |
| AATTTCACGTGCGGTG | 0.33 |
| GTGTACACGTGTAGTA | 0.04 |
| TTGGTCACGTGTGGTC | 0.18 |
| GTAGTCACGTGTTGAG | 0.08 |
| TTAGCCACGTGTGTAA | 0.02 |

| Sequence | relative binding free energy [kcal/mol] |
| --- | --- |
| AGTTGCACGTGGGACG | -0.07 |
| TAAAACACGTGGAGTT | 0.08 |
| GTTAGCACGTGGGCCT | -0.13 |
| AGTGTCACGTGTTTCT | 0.09 |
| GGGATCACGTGGTGAG | 0.18 |
| CGGATCACGTGTTTGT | 0.21 |
| GTTTGCACGTGATGGC | 0.18 |
| GCGTTCACGTGAGTGA | 0.37 |
| GAGAGCACGTGGTCAG | -0.09 |
| TTAGGCACGTGCGTAG | -0.31 |
| AGGAGCACGTGCAGGG | -0.2 |
| ATGCTCACGTGGGGAG | 0.22 |
| AATTTCACGTGGGCAG | 0.24 |
| TAGCTCACGTGGGGTC | 0.12 |
| TTTGTCACGTGGATGC | -0.02 |
| ATTTACACGTGGGGTC | -0.06 |
| GTGAGCACGTGGTCTG | -0.07 |
| TTGCTCACGTGGTATG | -0.04 |
| AGGGTCACGTGTTATG | 0.06 |
| GGCTTCACGTGTCTGG | 0.34 |
| CTTTTCACGTGCGGAG | 0.28 |
| GATAACACGTGGATGG | -0.08 |
| TACTTCACGTGATTTG | 0.43 |
| TGGGGCACGTGGTGTG | -0.13 |
| TAAGTCACGTGTCATT | 0.14 |

| Sequence | relative binding free energy [kcal/mol] |
| --- | --- |
| TTCTGCACGTGAGGAT | 0.17 |
| AGGGACACGTGACTGT | 0.25 |
| ATGTCCACGTGGAGTG | 0.06 |
| TATATCACGTGATATG | 0.29 |
| CAAGTCACGTGCGGTT | 0.09 |
| CTGGACACGTGAGGAG | 0.21 |
| CGTATCACGTGTGTAT | 0.03 |
| AATATCACGTGGGAGA | 0.12 |
| TGGGGCACGTGAAGTA | 0.09 |
| GATATCACGTGGTGGG | 0.15 |
| ATTAGCACGTGGCGTG | -0.2 |
| TTTTTCACGTGATTCC | 0.53 |
| AGGAACACGTGTCTGT | 0.12 |
| ACTAGCACGTGTTGTT | 0.04 |
| GATTTCACGTGTTTCG | 0.31 |
| GTTGTCACGTGTGTTT | 0.25 |
| AGCATCACGTGGGTTT | 0.1 |
| GGCGGCACGTGCTGGA | -0.13 |
| AAGTGCACGTGGGTTC | -0.15 |
| ATATTCACGTGTGGGT | 0.32 |
| AGTTGCACGTGCTGTG | -0.14 |
| TTTTTCACGTGACATT | 0.34 |
| GTATGCACGTGAGCTA | 0.3 |
| GTAGACACGTGTTCGT | 0.08 |
| TGTGACACGTGGGACG | -0.26 |

| Sequence | relative binding free energy [kcal/mol] |
| --- | --- |
| ATTATCACGTGTGGTA | 0.18 |
| CATGGCACGTGAGGAG | 0.15 |
| TTATTCACGTGAATAT | 0.38 |
| GGTCACACGTGGTGCA | 0.09 |
| TGTCACACGTGTGTAT | 0.18 |
| TCTTGCACGTGTTGAA | 0.05 |
| TCTGGCACGTGCTGGT | -0.16 |
| TTAGTCACGTGGGGGG | -0.06 |
| GTTTCCACGTGGGTGG | 0.08 |
| GGGTCCACGTGTGATA | 0.18 |
| GTTGACACGTGTGATC | 0.4 |
| TCTATCACGTGGTAGT | 0.14 |
| GGTAGCACGTGTGGAC | 0.04 |
| CGGTTCACGTGGTCGA | 0.26 |
| GTCAGCACGTGTTGAG | 0.03 |
| GGTGGCACGTGAGGCA | 0.16 |
| AGTTACACGTGTTAGA | 0.12 |
| GTTGGCACGTGTGGTA | 0.03 |
| GGGAGCACGTGGAAGG | 0.06 |
| TGTGACACGTGCGGGC | -0.03 |
| AAAATCACGTGGATGG | 0.19 |
| TGATGCACGTGGTTTC | -0.07 |
| CATGGCACGTGGTAAT | -0.19 |
| AATATCACGTGAAGTG | 0.29 |
| TTGTTCACGTGGTCCA | 0.16 |

| Sequence | relative binding free energy [kcal/mol] |
| --- | --- |
| AGTTCCACGTGATGAG | 0.22 |
| GGGTGCACGTGTGCAT | -0.02 |
| GTCACCACGTGAGGGT | 0.22 |
| TAAGTCACGTGTGTGA | 0.17 |
| AGCAGCACGTGTGATG | -0.03 |
| ATTTTCACGTGCAGAT | 0.32 |
| AGTATCACGTGCGGGC | 0.09 |
| TTTGTCACGTGGGAGA | -0.08 |
| GCTGTCACGTGTGGTC | 0.06 |
| GTGTCCACGTGGTCTT | 0.08 |
| GTGCTCACGTGTGTGC | 0.26 |
| GGTGGCACGTGCATGT | -0.19 |
| GTGACCACGTGGTAGG | -0.08 |
| TTATCCACGTGTGGCT | 0.06 |
| TAAATCACGTGTTGGG | 0.3 |
| GGGGTCACGTGGTATA | 0.2 |
| ATTATCACGTGTTTCG | 0.14 |
| TGTCTCACGTGTGGTA | 0.2 |
| TGGGGCACGTGGTCGC | -0.3 |
| AGTGGCACGTGGTTGC | -0.14 |
| GCGTGCACGTGTGCGA | -0.01 |
| ATGTTCACGTGAGCTA | 0.49 |
| CTTGACACGTGATTGT | 0.05 |
| TGATTCACGTGCATAT | 0.21 |
| CGGGTCACGTGAGGTG | 0.27 |

| Sequence | relative binding free energy [kcal/mol] |
| --- | --- |
| TACGTCACGTGGTTTT | 0.08 |
| GGGGGCACGTGGTAAG | -0.08 |
| ATGTTCACGTGTCGTG | 0.24 |
| AAGTGCACGTGGCTGT | -0.12 |
| TGGTACACGTGGTACT | -0.06 |
| CGTGGCACGTGAGTAA | 0.1 |
| TTGGTCACGTGAATAC | 0.31 |
| AGGTGCACGTGTTGTC | 0.09 |
| GTAAGCACGTGTGGCA | -0.07 |
| GACTGCACGTGGGAGG | 0.11 |
| TTTCTCACGTGCATGT | 0.29 |
| TTGGTCACGTGCAGGC | -0.01 |
| GGGAACACGTGGTGTC | -0.02 |
| GGGGACACGTGGCGCG | -0.01 |
| GAGAACACGTGGTGGG | 0.06 |
| ATAGGCACGTGGGTAG | -0.22 |
| GTGGTCACGTGCAGGG | 0.05 |
| GCATGCACGTGGGATG | -0.03 |
| TTTTACACGTGCTCGT | -0.02 |
| AGAGACACGTGTTGGG | -0.01 |
| GTTGGCACGTGGGTAG | -0.05 |
